# In the supplement of paper PMC11417369:
# The other results are listed elsewhere or left out.
# System: PfHDP1 homeodomain (GST-tagged)
# Assay: gcPBM binding intensity (ln(normalized median fluorescence intensity)); higher = stronger DNA binding
# Procedure, shortened: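 Binding intensity is defined as the maximum Masliner-normalised natural-log median intensity across replicate spots for either probe orientation. It was measured on an Agilent 4 × 180k array of primer-extended double-stranded 36-bp intergenic genomic probes and negative controls, to which GST-tagged P. falciparum DNA-binding domains made in E. coli were applied for 1 h in 1× PBS with 1% milk, 0.2 mg/ml BSA, 0.5% salmon testes DNA and 0.03% Triton X-100. Detection was by Alexa488 anti-GST antibody and scanning at 488 nm.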
row,Sequence,gcPBM binding intensity (ln)
1,AAGGTATGATTAATCACACACATAAATATAAATACA [CACACA_site5464],6.69
2,AAGCTTCATTAATATACACACATATATGTGTATATT [CACACA_site7693],6.88
3,TAATATATTATAAACACATGCACATTAATAATAACT [TGCATGCA_site708],8.38
4,ATAGACATTTTACTTTGTACATATAAACATATATAT [XGTACX_site2733],6.75
5,TATATATATATATATGTGCACATTTTATTAAAATGT,10.2
6,ACATAAATATATTTTTCACACATCATTAGTTATGAA [CACACA_site4724],6.68
7,ATATGAAACATGAAGGTGCATAATGTGTATATTTAT,10.1
8,TATTTTTTAAAAAAACGTACAAACATAATAAAAATA [XGTACX_site1857],7.11
9,TTTTTTATGAGGTGGTGTACTTTTTTTTTTTTCTTT [XGTACX_site8550],6.18
10,TGGTAATACCCATACACACACACATACCCATATATA [CACACA_site5509],6.9
11,TTCAAATAAATAGTAGTGCATATTTATTAATGTAAA,8.68
12,ATTAAAGAGAGACATCAACACACATACGTATGTATA [CACACA_site8393],6.43
13,CAAGAAACAGTGATACGTACACATATATATATATAT [XGTACX_site3229],9.24
14,AATGAATGTACATACGCATGTACTTGACTAAATTAT [TGCATGCA_site436],6.4
15,ATTTTCAAATTATCAGATGAATCTTTTTAAGATCTT [XGTACX_negctrl_site598],5.71
16,AAACTATACCAAAACACACATACAAAATATAAAAAA [CACACA_site2707],6.84
17,TTTTTTTTTTTTTTTTTACACACTGCATACAAGAAA [CACACA_site3026],6.53
18,GTCTGCATATGGATACGTACACATATATATTAATGT [XGTACX_site2260],6.84
19,GGGAAAAAATGAGGTCGTACATTTTTCATCACAAAT [XGTACX_site8920],6.42
20,CTCATATATAACACATGTACACAGATTTTGCAAATG [XGTACX_site6879],8.94
21,CAACAACATTTTTCATGTACATATATTTTATAATAT [XGTACX_site519],6.47
22,AAAAAAAAAAAAAACATACACACAAGAACAAAATAT [CACACA_site3003],6.9
23,TAAAAAATAAAATACACACACATATTTATATTTATA [CACACA_site6737],6.45

row,Sequence,gcPBM binding intensity (ln)
1,ATGTTATATTTTTTTATACACACTGGAATATATAAA [CACACA_site215],6.71
2,ATTTATAATGAGTATACACACATATATAGATTTGCT [CACACA_site4517],6.65
3,ATTATTATTGTCAAATGTACAAGCTAATAATTTTTA [XGTACX_site7167],6.13
4,TATATATATATATATTGTACTTTATTTTATATATTC [XGTACX_site5697],9.11
5,ATATATATATATACATGTACATATATACATTATATT [XGTACX_site936],9.05
6,AAACATTTAAATGGAAACACAGAAAAATGAAAAATG [CACACA_negctrl_site457],7.11
7,TTTTTTTTTTGTAATACACACCACTATATGTTATTT [CACACA_site5087],6.86
8,ATATGTTACTTTACATAAAGAAGAAGAAGAAGAAAA [CACACA_negctrl_site985],6.27
9,TATTATTCAAATAAAAGAAAAATATATATATTATAT [GTGCAC_negctrl_site273],6.47
10,TTTCAAAAAGGAAGAAAAAAAAAAAAAAAAAATATA [XGTACX_negctrl_site514],5.88
11,ATATATATATATATATGTACATATTTTTTATTTTAT [XGTACX_site5761],9.37
12,AAAAAAAAAAAAAAAACACACATATATGTATATATA [CACACA_site3276],6.64
13,CAATTACGCAGGAATGCACACAATAATAAAAAAAAT [CACACA_site3513],8.88
14,TTTTTTCTTTTCAAGGTGCTTTATAAGAAAAAGGGA [GTGCAC_site9858],6.13
15,AAAAAAAAAAAAAACACACACACACCCAAATACATA [CACACA_site708],6.82
16,AGTATTATATTTTCTTGTACACATGTAAAATACCTC [XGTACX_site1359],6.79
17,TATATTAAAACAAGCACACAATCGCATAATATCCTT [CACACA_site3210],6.45
18,TATTTTATCATTTGCACACGCACACCCACATAAAAA [CACACA_site354],10.5
19,TTCTTATTTAATGTATCACACACGAGAATAAAAAAT [CACACA_site8992],6.82
20,CATATGGCAATAATTACATGCAAAAAAAAAAAAAAA [TGCATGCA_site578],6.4
21,AATGTAAAAGTAAACACACACATATATTTATACATA [CACACA_site7218],6.73
22,AGCCATATCTTTTTTGCACACACTACAATAAAACAA [CACACA_site1650],10.1
23,ACATTTAATGTTATATGTACATAATATTATAAGTAT [XGTACX_site1393],7.12

row,Sequence,gcPBM binding intensity (ln)
1,GTAAATCGACACATACGTACATACATTTATATATAT [XGTACX_site3143],6.8
2,AAAAAAAAGAAAAACACACACATATATATATATAAT [CACACA_site4707],6.64
3,ACAGACGTTCAAAGGTGTACGCAAAATGAATAATAT [XGTACX_site7565],6.95
4,TATATATATGGTTTAACACACGAGATAAAAGTATAT [CACACA_site2867],6.87
5,ATTGTGCTCATCAGCACACACAACATCATGTAATAA [CACACA_site1863],8.41
6,TTATATTTATAAAATTGTATACCCCTTCTAACTTTC [CACACA_negctrl_site250],6.7
7,TTTTAAATTTAATTTACACACTTTTCATAGCATTGA [CACACA_site3794],6.49
8,TTCTATTCACATTTTACACACGTCCATCGCATTTTA [CACACA_site3453],7.31
9,TATATGGTATGTATTACACACATATCACATATAGAT [CACACA_site7426],6.39
10,TTAATTAAAACGAATACACACATAAATATGTAAAAG [CACACA_site6707],6.37
11,TATATATATATATAATGTACTTATATTTTTTTGAGG [XGTACX_site2638],9.17
12,AAAAAAAAAAAAAAAAGTACATATATATATTTATAT [XGTACX_site5893],6.41
13,CATAAATCAGCCATAACACACATACATATATACATA [CACACA_site8025],6.55
14,ACACATATGTCTTCATGTACATAATATATAAATCTT [XGTACX_site3438],6.97
15,TCATTGAAAATTGTTGCACACATAATAATTAAATAT [CACACA_site8554],9.46
16,TATCTTTTTATTTTTTATTTTTTTTTTATAATTTAC [XGTACX_negctrl_site414],6.45
17,TGTTAAAAAATGGATGCACACATTAAATAAAAAGTA [CACACA_site1660],8.66
18,TATATATATACAGTTGCATGTTGTGTTTAAAATTTT [TGCATGCA_site816],7.86
19,TAAAGGTAGATATATTGTACATACACACCTATATAA [XGTACX_site6865],6.36
20,TCTTGTTTATCAACAGCACACACAACAACAACAACA [CACACA_site8046],6.8
21,TATAAATACGAACACACACACCTTATAATTACTACT [CACACA_site7827],6.75
22,TTATATTTAGTATATGCACACTTTATGTTTGTTATT [CACACA_site5163],9.53
23,AAAAACCATTGGCACACACACATAATATATAATATA [CACACA_site4903],6.83

row,Sequence,gcPBM binding intensity (ln)
1,AAGAAAGGTTAAACATGTACATAAATATTTTACATA [XGTACX_site5024],6.28
2,ACATTATATTTGGACTGTACTAATATATTGTTATAT [XGTACX_site5573],6.23
3,ATATATATATATATATGTACATATTGTATCTTATAC [XGTACX_site5466],9.29
4,TATACATATATATATTGTACATATTATATATATATA [XGTACX_site3286],8.6
5,GAATATTTATGATGAACTATTAATTAATTTTACATA [GTGCAC_negctrl_site353],6.08
6,AAATAAATTGAAGATACATGCATATTTTTTTTTTAT [TGCATGCA_site686],6.25
7,TTTATATTTTTTTTTGCACACTTTAAAAAAATATAT [CACACA_site1146],9.29
8,TATATATTACATAAAACACACAAAAAAAAAATTAAA [CACACA_site3882],6.74
9,ATGTAGAGTAATAGTTGTACAAGGTGTATATCTCAT [XGTACX_site6370],7.33
10,AAAAAAAAAAACTTTGCATGTAATAATAAAAAAAAA [TGCATGCA_site81],6.43
11,AGAAGAAAACAAAACACACACATATATCTTAATATA [CACACA_site2231],6.73
12,TGGTGAAAAATATAAATATAAATAAATATATATATA [CACACA_negctrl_site1725],8.51
13,ATGTTAATTAATGAGGTGCATTGAATATTTCAATAA,8.32
14,TGTATTATCTCTTATGAACACACATTTTTATTTTCA [CACACA_site9107],6.65
15,ATACCTAAAAAATATACACACATATATATAAATATA [CACACA_site2580],6.49
16,CATCAATGCTAATTATGTACTTACATAAATAACCCT [XGTACX_site968],6.52
17,AATTAAATGTTTCTAAGATATACGACCAATGTATTT [CACACA_negctrl_site1694],6.04
18,AATTAATGGGTACATACACACATATATACATACATA [CACACA_site742],6.43
19,ATAAATAAATAAAAGCGTACATATATATAAAATATA [XGTACX_site8107],6.31
20,TATCACCCACCATGAAGTACATATTACCATTTGATG [XGTACX_site845],6.58
